Measurements reported in PubChem BioAssay AID1345082 (National Center for Advancing Translational Sciences (NCATS), 2018).
Out of some 94,000 compounds screened, about 4,000 (4.3%) were called active. Inconclusive means that the source gave no clear call. Such entries were picked first, then a sample of the others. Calls follow the shape of the dose curve; as a rule, active = well fitted inhibition curve with a large enough effect; inconclusive = small, poorly fitted or top-dose-only effect; inactive = no such curve, though single readings can be large or run the other way. Potencies of inconclusive entries are doubtful fits and often do not repeat.

Assay: Cytotoxic Profiling in NIH 3T3 Cell Line of Diverse Libraries Using Quantitative High-Throughput Screening; also: nearly all actives have a fitted effect of over 55% in size
Conditions: NIH 3T3 viability, CellTiter-Glo ATP luminescence, 48-72 h; activity change, negative = cytotoxicity: at 96.7 µM (top of the series) unless noted; series mostly up to 96.7 µM
Procedure, shortened: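 Mouse fibroblast NIH 3T3 cells, 400 per well, received compound via pintool and were incubated for 48 or 72 hr prior to CellTiter-Glo ATP luminescence measurement.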
% is scaled to controls: 0 for no effect and ±100 for the full control effect; potency is read from the fitted curve at half-maximal effect; tags tell the direction and shape of the fitted curve.

Row | Structure (SMILES) | Potency | activity change, negative = cytotoxicity | outcome
1 | COc1ccc2nc3n(c2c1)[C@@H](CNC(=O)c1ccccc1)COC3 | inconclusive: 100 µM [inhibitor, partial curve, poor fit] |  | 
2 | CCn1c(CO)nnc1C1CC(NC(=O)c2sccc2N)C1 (configuration not stated) | inconclusive: 50.1 µM [inhibitor, partial curve, poor fit] |  | 
3 | Cc1ccc(S(=O)(=O)N2CCC(n3cnnc3C)CC2)cc1F |  | inactive: -9.85% | 
4 | O=C(c1cccc(F)c1)N1CC(Oc2ccc(-c3noc(C4CCOCC4)n3)cc2)C1 | inconclusive: 7.08 µM [inhibitor, partial curve, poor fit] |  | 
5 | CN1CC(=O)N(C2CCNC2)Cc2c1ncnc2N1CCC(N)CC1 (configuration not stated) |  | inactive: -11.3% | 
6 | O=C(NCCc1ccccc1F)C1CCN(c2nccc(Nc3ccccc3F)n2)CC1 | inconclusive: 44.7 µM [inhibitor, partial curve, poor fit] |  | 
7 | COc1ccc(C(=O)N2CCC(c3nc(CCOCC4CCOCC4)no3)C2)cn1 (configuration not stated) |  |  | inactive
8 | CN(Cc1ccccc1)CC1(O)CCCN(CCCc2ccccc2)C1=O (configuration not stated) | inconclusive: 79.4 µM [inhibitor, single point] |  | 
9 | CCOC(=O)c1ccc(NC(=O)Cn2c(N(C)Cc3ccccc3)nc(C)cc2=O)cc1 | inconclusive: 50.1 µM [inhibitor, partial curve, poor fit] |  | 
10 | CC1Oc2ccc(NC(=O)Cc3cccs3)cc2CN(Cc2ccc(Cl)cc2)C1=O (configuration not stated) | active: 39.8 µM |  | 
11 | COc1cccc(-c2ccc(C(=O)NCCNC(=O)c3ccc(C(F)(F)F)cc3)cc2)c1 |  | inactive: 3.2% | 
12 | O=C(COc1ccccc1)NCCC1CCN(C(=O)Nc2cc(F)cc(F)c2)CC1 | inconclusive: 50.1 µM [inhibitor, single point] |  | 
13 | O=C(NC1CCN(c2cc(-c3ccc(F)cc3)[nH]n2)CC1)c1ccc2[nH]ccc2c1 | active: 25.1 µM |  | 
14 | O=C(NCCCc1ccccc1)C1CCCN(c2ccnc3ccnn23)C1 (configuration not stated) | inconclusive: 35.5 µM [inhibitor, partial curve] |  | 
15 | O=C1Cc2c(-c3cccc4ccccc34)n[nH]c2CN1CCc1ccncc1 | inconclusive: 89.1 µM [inhibitor, partial curve, poor fit] |  | 
16 | N#Cc1cccnc1-c1cccc(C(=O)NCCNC(=O)c2cccc(Cl)c2)c1 | inconclusive: 35.5 µM [inhibitor, full curve, poor fit] |  | 
17 | COCc1ccc(C(=O)NCC2COc3cc(OC)ccc3C2)o1 (configuration not stated) |  | inactive: -9.87% | 
18 | CCc1ccc(CN2CCCC23Cc2ccccc2CNC3=O)cc1 (configuration not stated) | inconclusive: 79.4 µM [inhibitor, partial curve, poor fit] |  | 
19 | COc1ccc(S(=O)(=O)N2CCCC(Cn3c(C)nc4cccnc43)C2)cc1OC (configuration not stated) | inconclusive: 7.08 µM [inhibitor, full curve, poor fit] |  | 
20 | O=c1c2c(n(Cc3cccnc3)n1-c1ccccc1)CN(CC1CCOCC1)CC2 | inconclusive: 56.2 µM [inhibitor, partial curve, poor fit] |  | 
21 | CN(C)C(=O)C1CCCN1c1nccc(Nc2ccccc2F)n1 (configuration not stated) |  | inactive: -13.6% [at 138 µM] | 

Row | Structure (SMILES) | Potency | activity change, negative = cytotoxicity | outcome
22 | Cc1csc(NC(=O)c2cnc3c(c2)N(C(=O)Cc2ccc(C(C)C)cc2)CCC3)n1 | inconclusive: 63.1 µM [inhibitor, partial curve, poor fit] |  | 
23 | Cc1ccc(Nc2ccnc(N3CCCC3C(=O)N3CCN(Cc4ccccc4)CC3)n2)cc1 (configuration not stated) | active: 35.5 µM |  | 
24 | O=C1Nc2ccc(-c3ccc4c(c3)OCO4)cc2C(=O)N2CC[C@H](NC(=O)N3CCOCC3)[C@@H]12 | inconclusive: 50.1 µM [inhibitor, partial curve, poor fit] |  | 
25 | Cn1ncc2c(C(=O)NCC3CC3)cc(C(C)(C)C)nc21 | inconclusive: 79.4 µM [inhibitor, partial curve, poor fit] |  | 
26 | Cc1ccc(C2(O)CCN(C(=O)c3ccc4ncccc4c3)CC2)nc1 |  | inactive: -18.9% | 
27 | CS(=O)(=O)N(C1CCOCC1)C1CCN(C(=O)C2CC2)CC1 |  | inactive: -6.17% | 
28 | COC(=O)CNC(=O)C1CCCN1Cc1ccc(-c2cc(C)cc(C)c2)cc1 (configuration not stated) | inconclusive: 70.8 µM [inhibitor, partial curve, poor fit] |  | 
29 | Cc1cc(Cl)ccc1S(=O)(=O)N1CCC(Oc2ccc(C(N)=O)cn2)CC1 | inconclusive: 50.1 µM [inhibitor, partial curve, poor fit] |  | 
30 | O=C(NCc1cccc(C(F)(F)F)c1)c1cccc2c1CCN2C(=O)C1CC1 | inconclusive: 50.1 µM [inhibitor, partial curve, poor fit] |  | 
31 | O=C(NCc1ccc(F)cc1)c1nc(-c2ccsc2)c2ccccn12 | inconclusive: 50.1 µM [inhibitor, partial curve, poor fit] |  | 
32 | CC1(COc2cccnc2)COc2ccc(C(=O)NCc3ccc(F)cc3)cc2N1 (configuration not stated) | inconclusive: 39.8 µM [inhibitor, partial curve, poor fit] |  | 
33 | O=C(Nc1ccc(Cl)cc1)NC1CCCN(Cc2ccc(-c3cncnc3)cc2)C1 (configuration not stated) | inconclusive: 70.8 µM [inhibitor, partial curve, poor fit] |  | 
34 | CCCCNC(=O)C1(c2ccc(NC(=O)C(C)C)cc2)CCCCC1 | inconclusive: 50.1 µM [inhibitor, partial curve, poor fit] |  | 
35 | O=C1CO[C@H]2CN(Cc3c[nH]c4ccccc34)C[C@H]2N1Cc1ccc(F)cc1 | inconclusive: 126 µM [inhibitor, partial curve, poor fit] |  | 
36 | Cc1ccc(OCc2nc(C3CCN(C(=O)CCc4nc5ccc(Cl)cc5[nH]4)CC3)no2)cc1 | inconclusive: 44.7 µM [inhibitor, partial curve, poor fit] |  | 
37 | COc1cccc(CNC(=O)c2ccc3c(c2)CC(=O)N3Cc2ccccc2)c1 | inconclusive: 50.1 µM [inhibitor, single point] |  | 
38 | Cc1ccsc1CN1CCC(n2c(C)cnc2-c2ccncc2)C1 (configuration not stated) | inconclusive: 44.7 µM [inhibitor, partial curve, poor fit] |  | 
39 | COc1ccc(Cl)cc1-c1ccc2c(c1)C(=O)N1CC[C@H](NC(=O)C3CCCC3)C[C@H]1C(=O)N2 | inconclusive: 50.1 µM [inhibitor, partial curve, poor fit] |  | 
40 | O=C(Nc1cnc(-c2ccc(Cl)cc2)nc1)c1ccccc1F |  | inactive: 2.49% | 
41 | O=C(CNC(=O)c1cccc(-c2ccc(C(F)(F)F)cc2)c1)NCCc1ccc(Cl)cc1 |  | inactive: -22.7% | 
42 | O=C(NC1CCN(Cc2ccc(-c3ccsc3)cc2)C1)c1ccncc1 (configuration not stated) | inconclusive: 50.1 µM [inhibitor, partial curve, poor fit] |  | 

Row | Structure (SMILES) | Potency | activity change, negative = cytotoxicity | outcome
43 | CC(C)c1nc2c(c(-c3ccc(Cl)cc3)n1)CN([S+](=O)([O-])c1ccccc1)CC2 |  | inactive: -25.9% | 
44 | OCC1COCCN(Cc2csc(-c3ccc(C(F)(F)F)cc3)n2)C1 (configuration not stated) | inconclusive: 31.6 µM [inhibitor, partial curve, poor fit] |  | 
45 | Cn1ccc(C(=O)N2CCC3(CC2)OC(=O)N(Cc2ccccc2F)C3(C)c2ccccc2)n1 (configuration not stated) | inconclusive: 50.1 µM [inhibitor, partial curve, poor fit] |  | 
46 | O=C(NCCc1noc(-c2ccccc2)n1)c1ccc(Cl)s1 | inconclusive: 31.6 µM [inhibitor, partial curve] |  | 
47 | Cc1cccc(NC(=O)N2CCc3c(c4cc(F)ccc4n3C)C2)c1 | inconclusive: 50.1 µM [inhibitor, partial curve, poor fit] |  | 
48 | CC(C)(C)C(=O)N1CCN(C(=O)c2cccc(-c3ccccn3)c2)CC1 |  | inactive: -16% | 
49 | O=C(COc1ccc(-c2nnc3n2CCCC3)cc1)Nc1cccc(Br)c1 | inconclusive: 35.5 µM [inhibitor, partial curve] |  | 
50 | CCC(=O)N1CCN(C2CCN(Cc3ccccn3)C2=O)CC1 (configuration not stated) |  | inactive: -7.18% | 
51 | COc1cccc(CCC(=O)N2CCC(Oc3ccc(-c4noc(C5CC5)n4)cc3)C2)c1 (configuration not stated) | inconclusive: 50.1 µM [inhibitor, partial curve, poor fit] |  | 
52 | Cc1ccccc1N1CCN(C(=O)c2ccc(Cn3ccn4nc5c(c4c3=O)CCCC5)cc2)CC1 | inconclusive: 22.4 µM [inhibitor, full curve, poor fit] |  | 
53 | COc1ccc(-c2cn(C3CCN(C(=O)c4ccc(Cl)cc4)CC3)c(=O)[nH]2)cc1 | inconclusive: 50.1 µM [inhibitor, partial curve, poor fit] |  | 
54 | COCC1CN(C2CCC2)CC12CCN(C(=O)c1ccc(OC)cc1C)CC2 (configuration not stated) |  | inactive: -18.3% | 
55 | O=C(c1cnccn1)N1CCCC(c2ccccc2)(c2ccccc2)C1 |  | inactive: -13.4% | 
56 | CC(C)c1cc(C(=O)N2CCC(n3cc(-c4ccccn4)nn3)CC2)n(C)n1 | inconclusive: 25.1 µM [inhibitor, partial curve, poor fit] |  | 
57 | CCC(=O)N1CCc2c(C(=O)NCc3cccnc3)cccc21 |  |  | inactive
58 | COc1ccc2cc(C3CN(C(=O)c4cccc(CO)c4)CCO3)ccc2c1 (configuration not stated) | inconclusive: 39.8 µM [inhibitor, full curve] |  | 
59 | CC(C)NC(=O)NC1CCN(c2ccc3nnc(C4CC4)n3n2)C1 (configuration not stated) |  |  | inactive
60 | O=C(NC1CCCN(c2cc(-c3ccccc3)[nH]n2)C1)c1ccccc1C(F)(F)F (configuration not stated) | inconclusive: 50.1 µM [inhibitor, partial curve, poor fit] |  | 
61 | C[S+](=O)([O-])c1ccc(-c2cc(C(=O)NC3CCCC3)nn3cccc23)cc1 | inconclusive: 50.1 µM [inhibitor, partial curve, poor fit] |  | 
62 | Cc1cccc2c1O[C@H]1[C@H](C(N)=O)CN(C(=O)c3ccc(C(F)(F)F)cc3)[C@@H]21 | inconclusive: 50.1 µM [inhibitor, partial curve, poor fit] |  | 
